# Source: the supplement of paper PMC12067230
# Single values of this set are uncertain.
# Test: amyloid nucleation score relative to library mode (yeast Sup35 reporter selection) (log enrichment difference); higher = more amyloid nucleation; sequences are the first 22 residues of the Bri2 peptide extended by up to 12 random residues
# Conditions: random library (experiment): 1;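 active = nucleation score significantly above 0 at FDR 0.05; inactive = not significantly above 0 or absent from output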
# Protocol: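 Random C-terminal extensions of the 22-aa Bri2 peptide by 12 NNK codons; premature stops give shorter extensions. Peptides were fused to the Sup35 nucleation domain in S. cerevisiae [psi-pin-] and selected on -ADE-URA plates for 7 d at 30 °C. The nucleation score is log(output/input), centred to the mode of each of 3 independent libraries (1 input, 3 technical output replicates), with duplicates merged. Sequences absent from the output ('random_non_nuc') were imputed with the library mode value, so they are given as censored (<). Nucleators are scores significantly >0 at FDR 0.05.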
# 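Also: [psi-pin-] Saccharomyces cerevisiae expressing SupN fusions, induced by 100 µM Cu2SO4, selected 7 d at 30 °C without adenine and uracil, scored by deep sequencing of output versus input.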
row,Sequence,amyloid nucleation score
1,EASNCFAIRHFENKFAVETLICAGLCFSERVRSR,inactive
2,EASNCFAIRHFENKFAVETLICAGLRYYVGHVMW,inactive
3,EASNCFAIRHFENKFAVETLICAGPLASTVVG,inactive
4,EASNCFAIRHFENKFAVETLICAGPWSMEAAVVQ,inactive
5,EASNCFAIRHFENKFAVETLICAGQRTACPYLKV,-0.0194
6,EASNCFAIRHFENKFAVETLICAGRDISR,4.64
7,EASNCFAIRHFENKFAVETLICAGRRKALREMAC,inactive
8,EASNCFAIRHFENKFAVETLICAGRTSSVALR,1.2
9,EASNCFAIRHFENKFAVETLICAGSLKTDLDKSC,inactive
10,EASNCFAIRHFENKFAVETLICAGSRGGCRVLRG,inactive
11,EASNCFAIRHFENKFAVETLICAGTIVALKERLL,inactive
12,EASNCFAIRHFENKFAVETLICAGTTQELNRVVR,inactive
13,EASNCFAIRHFENKFAVETLICAGVAYFGVMKGS,7.08
14,EASNCFAIRHFENKFAVETLICAGVSNGGLLFCV,1.07
15,EASNCFAIRHFENKFAVETLICAGVSQGQAGTGR,-0.00976
16,EASNCFAIRHFENKFAVETLICAGWSVGTMRPG,-0.203
17,EASNCFAIRHFENKFAVETLICAGYQHWKDGARV,inactive
18,EASNCFAIRHFENKFAVETLICAH,inactive
19,EASNCFAIRHFENKFAVETLICAHCEAKCCRFDV,3.65
20,EASNCFAIRHFENKFAVETLICAHELHRVNTTWW,4.77
21,EASNCFAIRHFENKFAVETLICAHGWGRAWRR,1.5
22,EASNCFAIRHFENKFAVETLICAHKVNRC,3.77
23,EASNCFAIRHFENKFAVETLICAHLPLGIMRVSV,inactive
24,EASNCFAIRHFENKFAVETLICAHVYSV,inactive
25,EASNCFAIRHFENKFAVETLICAHWPFQGVQHCP,inactive
26,EASNCFAIRHFENKFAVETLICAHWSI,3.91
27,EASNCFAIRHFENKFAVETLICAHYIMVALCMRL,inactive

# Same assay, conditions: random library (experiment): 2
row,Sequence,amyloid nucleation score
1,EASNCFAIRHFENKFAVETLICAGLLRY,inactive
2,EASNCFAIRHFENKFAVETLICAGQRCWGSFRAE,2.31
3,EASNCFAIRHFENKFAVETLICAGTTCMLCDGIY,4.57
4,EASNCFAIRHFENKFAVETLICAHE,inactive
5,EASNCFAIRHFENKFAVETLICAHFTKTFTDFRG,3.49
6,EASNCFAIRHFENKFAVETLICAHLLYIP,inactive
7,EASNCFAIRHFENKFAVETLICAHYFSCAWSCPG,inactive

# Same assay, conditions: random library (experiment): 3
row,Sequence,amyloid nucleation score
1,EASNCFAIRHFENKFAVETLICAGPLSAPGWTLS,inactive
2,EASNCFAIRHFENKFAVETLICAGRESEPRKQVR,inactive
3,EASNCFAIRHFENKFAVETLICAGRESGSGMLCG,3.47
4,EASNCFAIRHFENKFAVETLICAGRPRGMKCLGW,0.0651
5,EASNCFAIRHFENKFAVETLICAGSCFSPLNIFG,8.78
6,EASNCFAIRHFENKFAVETLICAGWHVMLTRIGA,inactive
7,EASNCFAIRHFENKFAVETLICAHGGDAWRVVLW,0.0651
8,EASNCFAIRHFENKFAVETLICAHGRVTQLGVEK,inactive
9,EASNCFAIRHFENKFAVETLICAHGSVYVPRYGQ,8.25
10,EASNCFAIRHFENKFAVETLICAHGTRIIRQHRE,1.06
11,EASNCFAIRHFENKFAVETLICAHHLRYRWVTWA,0.778
12,EASNCFAIRHFENKFAVETLICAHMTWYCGCARR,6.91
13,EASNCFAIRHFENKFAVETLICAHSFDLSSVCRR,4.32
14,EASNCFAIRHFENKFAVETLICAIAGCFGLGRWG,7.71
